Results on 31 molecules are retold here after article PMC9911399, “Two distinct binding modes provide the RNA-binding protein RbFox with extraordinary sequence specificity”.

Substitutions are numbered along the chain they refer to; changes in the protein carry UniProt numbers. Some of the results follow.

T1: RBFOX1 RRM RbFoxmut (Fox-RRM*) (Homo sapiens, UniProt Q9NWB1 109-208, R118D;E147R;N151S;E152T)
T1 sequence: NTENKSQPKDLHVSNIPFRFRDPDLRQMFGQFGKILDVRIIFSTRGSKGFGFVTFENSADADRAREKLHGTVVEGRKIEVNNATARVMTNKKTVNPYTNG

B1: UGUUGCA (DNA:RNA)
RNA: GGGAGACCGGAAUUCAGAUUGUCCUGUUGCAUUAAAUCCCGUCGUAGCCACCA
DNA 1: CAATCTGAATTCCGGTCTCCC
DNA 2: TGGTGGCTACGACGGGATT
B2: UAGGGGG (DNA:RNA)
RNA: B1 RNA with G26A, U27G, U28G, C30G, A31G
DNA 1: CAATCTGAATTCCGGTCTCCC
DNA 2: TGGTGGCTACGACGGGATT
B3: GUUUGGC (DNA:RNA)
RNA: B1 RNA with U25G, G26U, C30G, A31C
DNA 1: CAATCTGAATTCCGGTCTCCC
DNA 2: TGGTGGCTACGACGGGATT
B4: CGUUCAU (DNA:RNA)
RNA: B1 RNA with U25C, G29C, C30A, A31U
DNA 1: CAATCTGAATTCCGGTCTCCC
DNA 2: TGGTGGCTACGACGGGATT
B5: GAAGCUG (DNA:RNA)
RNA: GGGAGACCGGAAUUCAGAUUGUCCGAAGCUGUUAAAUCCCGUCGUAGCCACCA
DNA 1: CAATCTGAATTCCGGTCTCCC
DNA 2: TGGTGGCTACGACGGGATT
B6: UCGAUCG (DNA:RNA)
RNA: B1 RNA with G26C, U27G, U28A, G29U, A31G
DNA 1: CAATCTGAATTCCGGTCTCCC
DNA 2: TGGTGGCTACGACGGGATT
B7: AAGUAUG (DNA:RNA)
RNA: B5 RNA with G25A, A27G, G28U, C29A
DNA 1: CAATCTGAATTCCGGTCTCCC
DNA 2: TGGTGGCTACGACGGGATT
B8: GAUUGAG (DNA:RNA)
RNA: B5 RNA with A27U, G28U, C29G, U30A
DNA 1: CAATCTGAATTCCGGTCTCCC
DNA 2: TGGTGGCTACGACGGGATT
B9: UUCUCGU (DNA:RNA)
RNA: B1 RNA with G26U, U27C, G29C, C30G, A31U
DNA 1: CAATCTGAATTCCGGTCTCCC
DNA 2: TGGTGGCTACGACGGGATT
B10: CUAGGUU (DNA:RNA)
RNA: B5 RNA with G25C, A26U, C29G, G31U
DNA 1: CAATCTGAATTCCGGTCTCCC
DNA 2: TGGTGGCTACGACGGGATT
B11: GCUCACA (DNA:RNA)
RNA: B1 RNA with U25G, G26C, U28C, G29A
DNA 1: CAATCTGAATTCCGGTCTCCC
DNA 2: TGGTGGCTACGACGGGATT
B12: CUCAGGC (DNA:RNA)
RNA: B1 RNA with U25C, G26U, U27C, U28A, C30G, A31C
DNA 1: CAATCTGAATTCCGGTCTCCC
DNA 2: TGGTGGCTACGACGGGATT
B13: AGUCGGA (DNA:RNA)
RNA: B1 RNA with U25A, U28C, C30G
DNA 1: CAATCTGAATTCCGGTCTCCC
DNA 2: TGGTGGCTACGACGGGATT
B14: CUGGUAC (DNA:RNA)
RNA: B5 RNA with G25C, A26U, A27G, C29U, U30A, G31C
DNA 1: CAATCTGAATTCCGGTCTCCC
DNA 2: TGGTGGCTACGACGGGATT
B15: AAUUUCA (DNA:RNA)
RNA: B1 RNA with U25A, G26A, G29U
DNA 1: CAATCTGAATTCCGGTCTCCC
DNA 2: TGGTGGCTACGACGGGATT
B16: AGGGUCC (DNA:RNA)
RNA: B1 RNA with U25A, U27G, U28G, G29U, A31C
DNA 1: CAATCTGAATTCCGGTCTCCC
DNA 2: TGGTGGCTACGACGGGATT
B17: GGGGCAU (DNA:RNA)
RNA: B5 RNA with A26G, A27G, U30A, G31U
DNA 1: CAATCTGAATTCCGGTCTCCC
DNA 2: TGGTGGCTACGACGGGATT
B18: AUCACGG (DNA:RNA)
RNA: B5 RNA with G25A, A26U, A27C, G28A, U30G
DNA 1: CAATCTGAATTCCGGTCTCCC
DNA 2: TGGTGGCTACGACGGGATT
B19: UUGUGCA (DNA:RNA)
RNA: B1 RNA with G26U, U27G
DNA 1: CAATCTGAATTCCGGTCTCCC
DNA 2: TGGTGGCTACGACGGGATT
B20: CUUUGCU (DNA:RNA)
RNA: B1 RNA with U25C, G26U, A31U
DNA 1: CAATCTGAATTCCGGTCTCCC
DNA 2: TGGTGGCTACGACGGGATT
B21: CAUGAAG (DNA:RNA)
RNA: B5 RNA with G25C, A27U, C29A, U30A
DNA 1: CAATCTGAATTCCGGTCTCCC
DNA 2: TGGTGGCTACGACGGGATT
B22: GCUGGCC (DNA:RNA)
RNA: B1 RNA with U25G, G26C, U28G, A31C
DNA 1: CAATCTGAATTCCGGTCTCCC
DNA 2: TGGTGGCTACGACGGGATT
B23: UAGCUGC (DNA:RNA)
RNA: B5 RNA with G25U, A27G, G28C, C29U, U30G, G31C
DNA 1: CAATCTGAATTCCGGTCTCCC
DNA 2: TGGTGGCTACGACGGGATT
B24: UGUCACA (DNA:RNA)
RNA: B1 RNA with U28C, G29A
DNA 1: CAATCTGAATTCCGGTCTCCC
DNA 2: TGGTGGCTACGACGGGATT
B25: GCUCGCC (DNA:RNA)
RNA: B1 RNA with U25G, G26C, U28C, A31C
DNA 1: CAATCTGAATTCCGGTCTCCC
DNA 2: TGGTGGCTACGACGGGATT
B26: UUAGGAA (DNA:RNA)
RNA: B1 RNA with G26U, U27A, U28G, C30A
DNA 1: CAATCTGAATTCCGGTCTCCC
DNA 2: TGGTGGCTACGACGGGATT
B27: GGUAUUG (DNA:RNA)
RNA: B5 RNA with A26G, A27U, G28A, C29U
DNA 1: CAATCTGAATTCCGGTCTCCC
DNA 2: TGGTGGCTACGACGGGATT
B28: UACAAAC (DNA:RNA)
RNA: B5 RNA with G25U, A27C, G28A, C29A, U30A, G31C
DNA 1: CAATCTGAATTCCGGTCTCCC
DNA 2: TGGTGGCTACGACGGGATT
B29: GUCACAC (DNA:RNA)
RNA: B5 RNA with A26U, A27C, G28A, U30A, G31C
DNA 1: CAATCTGAATTCCGGTCTCCC
DNA 2: TGGTGGCTACGACGGGATT
B30: GCUUGCA (DNA:RNA)
RNA: B1 RNA with U25G, G26C
DNA 1: CAATCTGAATTCCGGTCTCCC
DNA 2: TGGTGGCTACGACGGGATT
B31: AUCGUAC (DNA:RNA)
RNA: B5 RNA with G25A, A26U, A27C, C29U, U30A, G31C
DNA 1: CAATCTGAATTCCGGTCTCCC
DNA 2: TGGTGGCTACGACGGGATT

The experiment deals with T1, RBFOX1 RRM RbFoxmut (Fox-RRM*). Nature of the experiment: EMSA; HiTS-Eq, 1 nM pool, 10 min; buffer printed only for the single-RNA assays: 10 mM Tris pH 7.5, 150 mM NaCl, 3.4 mM EDTA, 0.001% NP-40, 30 C. To be noted: tags: His6 N-terminal (pET28a); label: 5' 32P. A digest of the protocol:
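Purified RbFox RRM, wild type or mutant, was incubated for 10 min in 50 µL with 1 nM of a 5′-radiolabelled RNA pool carrying 7 randomized nucleotides, whose flanks were annealed to DNA oligonucleotides, over a series of increasing protein concentrations. Unbound RNA was resolved on 8% native PAGE, cut out, reverse-transcribed, barcoded by PCR and sequenced on an Illumina HiSeq 2500. Relative association constants were derived from changes in read counts for each RNA species versus the control reaction and normalised to the cognate motif.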
For the molecule B1, the binding signal was 0.265 KA relative to UGCAUGU.
Turning to B2, the binding signal is 0.0988 KA relative to UGCAUGU.
In the case of B3, the binding signal was 0.209 KA relative to UGCAUGU.
On to B4, for which the binding signal is 0.0748 KA relative to UGCAUGU.
As to B5, the binding signal was 0.09 KA relative to UGCAUGU.
Take B6: the binding signal is 0.125 KA relative to UGCAUGU.
As for B7, the figure is 0.498 KA relative to UGCAUGU.
For the molecule B8, the binding signal is 0.183 KA relative to UGCAUGU.
On to B9, for which the binding signal was 0.0838 KA relative to UGCAUGU.
As for B10, the binding signal is 0.108 KA relative to UGCAUGU.
As to B11, the binding signal is 0.0849 KA relative to UGCAUGU.
Consider B12, for which the binding signal was 0.0928 KA relative to UGCAUGU.
Regarding B13, the binding signal was 0.0675 KA relative to UGCAUGU.
As for B14, the figure is 0.102 KA relative to UGCAUGU.
Consider B15, for which the binding signal was 0.0939 KA relative to UGCAUGU.
Consider B16, for which the binding signal was 0.1 KA relative to UGCAUGU.
On to B17, for which the binding signal was 0.0983 KA relative to UGCAUGU.
Consider B18, for which the binding signal is 0.11 KA relative to UGCAUGU.
On to B19, for which the binding signal is 0.212 KA relative to UGCAUGU.
With B20, the binding signal is 0.11 KA relative to UGCAUGU.
B21: the binding signal was 0.133 KA relative to UGCAUGU.
In the case of B22, the binding signal was 0.202 KA relative to UGCAUGU.
On to B23, for which the binding signal is 0.0952 KA relative to UGCAUGU.
For the molecule B24, the binding signal was 0.0787 KA relative to UGCAUGU.
For B25, the binding signal is 0.0931 KA relative to UGCAUGU.
Take B26: the binding signal is 0.0866 KA relative to UGCAUGU.
In the case of B27, the binding signal is 0.466 KA relative to UGCAUGU.
In the case of B28, the binding signal is 0.0542 KA relative to UGCAUGU.
The same measure for B29: 0.0993 KA relative to UGCAUGU; for B30: 0.243 KA relative to UGCAUGU.
As for B31, the figure is 0.139 KA relative to UGCAUGU.
